Results published in the supplement of paper PMC8728848.
The other results are listed elsewhere or left out.

How the values were obtained:
Assay in all cases: glycan array binding signal (z-score within array); higher = stronger binding
Conditions in all cases: glycan notation: IUPAC condensed, linker removed
Gal6S(b1-4)Glc = molecular target: Gal6S(b1-4)Glc
How it was run: (§1)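 Arrays were curated from the Consortium for Functional Glycomics database, 3228 in total, and kept only where the protein sequence was available. Binding is expressed as a within-array Z-score. This score was averaged across arrays of the same protein sequence at different concentrations or buffers and across linkers, and negative values can be read as non-binding.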

Gal6S(b1-4)Glc6S = molecular target: Gal6S(b1-4)Glc6S
How it was run: as §1

Gal6S(b1-4)GlcNAc = molecular target: Gal6S(b1-4)GlcNAc
How it was run: as §1

Gal6S(b1-4)GlcNAc6S = molecular target: Gal6S(b1-4)GlcNAc6S
How it was run: as §1

GalNAc(a1-3)Gal = molecular target: GalNAc(a1-3)Gal
How it was run: as §1

GalNAc(a1-3)GalNAc = molecular target: GalNAc(a1-3)GalNAc
How it was run: as §1

[1] = molecular target: GalNAc(a1-3)GalNAc(b1-3)Gal(a1-4)Gal(b1-4)Glc
How it was run: as §1

[2] = molecular target: GalNAc(a1-3)GalNAc(b1-3)Gal(a1-4)Gal(b1-4)GlcNAc
How it was run: as §1

GalNAc(b1-3)Gal = molecular target: GalNAc(b1-3)Gal
How it was run: as §1

[3] = molecular target: GalNAc(b1-3)Gal(a1-4)Gal(b1-4)GlcNAc
How it was run: as §1

[4] = molecular target: GalNAc(b1-3)Gal(a1-4)Gal(b1-4)GlcNAc(b1-3)Gal(b1-4)Glc
How it was run: as §1

[5] = molecular target: GalNAc(b1-3)Gal(a1-6)Gal(b1-4)Glc
How it was run: as §1

GalNAc(b1-3)GalNAc = molecular target: GalNAc(b1-3)GalNAc
How it was run: as §1

GalNAc(b1-3)GlcNAc = molecular target: GalNAc(b1-3)GlcNAc
How it was run: as §1

GalNAc(b1-4)Gal(b1-4)Glc = molecular target: GalNAc(b1-4)Gal(b1-4)Glc
How it was run: as §1

GalNAc(b1-4)GlcNAc = molecular target: GalNAc(b1-4)GlcNAc
How it was run: as §1

[6] = molecular target: GalNAc(b1-4)GlcNAc(b1-2)Man
How it was run: as §1

[7] = molecular target: GalNAc(b1-4)GlcNAc(b1-2)Man(a1-3)[GalNAc(b1-4)GlcNAc(b1-2)Man(a1-6)]Man(b1-4)GlcNAc(b1-4)GlcNAc
How it was run: as §1

[8] = molecular target: GalNAc(b1-4)GlcNAc(b1-3)GalNAc(b1-4)GlcNAc
How it was run: as §1

GalNAc(b1-4)GlcNAc6S = molecular target: GalNAc(b1-4)GlcNAc6S
How it was run: as §1

GalNAc(b1-6)GalNAc = molecular target: GalNAc(b1-6)GalNAc
How it was run: as §1

GalNAc3S(b1-4)GlcNAc = molecular target: GalNAc3S(b1-4)GlcNAc
How it was run: as §1

GalNAc3S(b1-4)GlcNAc3S = molecular target: GalNAc3S(b1-4)GlcNAc3S
How it was run: as §1

[9] = molecular target: GalNAc3S(b1-4)[Fuc(a1-3)]GlcNAc
How it was run: as §1

GalNAc4S6S(b1-4)GlcNAc = molecular target: GalNAc4S6S(b1-4)GlcNAc
How it was run: as §1

GalNAc6S(b1-4)GlcNAc = molecular target: GalNAc6S(b1-4)GlcNAc
How it was run: as §1

Glc(a1-4)Glc = molecular target: Glc(a1-4)Glc
How it was run: as §1

[10] = molecular target: Glc(a1-4)Glc(a1-4)Glc(a1-4)Glc
How it was run: as §1

Glc(a1-6)Glc(a1-6)Glc = molecular target: Glc(a1-6)Glc(a1-6)Glc
How it was run: as §1

[11] = molecular target: Glc(a1-6)Glc(a1-6)Glc(a1-6)Glc
How it was run: as §1

Glc(b1-4)Glc = molecular target: Glc(b1-4)Glc
How it was run: as §1

Glc(b1-6)Glc = molecular target: Glc(b1-6)Glc
How it was run: as §1

GlcA(b1-3)Gal = molecular target: GlcA(b1-3)Gal
How it was run: as §1

GlcA(b1-3)GlcNAc = molecular target: GlcA(b1-3)GlcNAc
How it was run: as §1

GlcA(b1-6)Gal = molecular target: GlcA(b1-6)Gal
How it was run: as §1

[12] = molecular target: GlcA3S(b1-3)Gal(b1-4)GlcNAc(b1-2)Man
How it was run: as §1

[13] = molecular target: GlcA3S(b1-3)Gal(b1-4)GlcNAc(b1-3)Gal(b1-4)Glc
How it was run: as §1

[14] = molecular target: GlcNAc(a1-3)Gal(b1-4)GlcNAc
How it was run: as §1

[15] = molecular target: GlcNAc(a1-4)Gal(b1-3)GlcNAc
How it was run: as §1

[16] = molecular target: GlcNAc(a1-4)Gal(b1-4)GalNAc
How it was run: as §1

[17] = molecular target: GlcNAc(a1-4)Gal(b1-4)GlcNAc
How it was run: as §1

[18] = molecular target: GlcNAc(a1-4)Gal(b1-4)GlcNAc(b1-3)Gal(b1-4)Glc
How it was run: as §1

[19] = molecular target: GlcNAc(a1-4)Gal(b1-4)GlcNAc(b1-3)Gal(b1-4)GlcNAc
How it was run: as §1

[20] = molecular target: GlcNAc(a1-4)Gal(b1-4)GlcNAc(b1-3)Gal(b1-4)GlcNAc(b1-3)Gal(b1-4)GlcNAc
How it was run: as §1

[21] = molecular target: GlcNAc(a1-4)Gal(b1-4)GlcNAc(b1-3)Gal(b1-4)[Fuc(a1-3)]GlcNAc(b1-3)Gal(b1-4)[Fuc(a1-3)]GlcNAc
How it was run: as §1

B1: EPL1 (Trichoderma atroviride), A0PCX2 (protein)
chain: MQLSNLFKLALFTAAVSADTVSYDTGYDDASRSLTVVSCSDGTNGLITRYHWQTQGQIPRFPYIGGAQAVAGWNSPNCGTCWKLTYSGKTIYVLAIDHTAAGFNIGLDAMNALTNGNAVALGRVSATASQVAVSNCGL
What does the source list for B1?
glycan array binding signal (z-score) (Gal6S(b1-4)Glc): 0.047; glycan array binding signal (z-score) (Gal6S(b1-4)Glc6S): -0.021; glycan array binding signal (z-score) (Gal6S(b1-4)GlcNAc): 0.196; glycan array binding signal (z-score) (Gal6S(b1-4)GlcNAc6S): 0.546; glycan array binding signal (z-score) (GalNAc(a1-3)Gal): -0.362; glycan array binding signal (z-score) (GalNAc(a1-3)GalNAc): -0.103; glycan array binding signal (z-score) [1]: -0.011; glycan array binding signal (z-score) [2]: -0.162; glycan array binding signal (z-score) (GalNAc(b1-3)Gal): 0.005; glycan array binding signal (z-score) [3]: 0.183; glycan array binding signal (z-score) [4]: -0.272; glycan array binding signal (z-score) [5]: -0.107; glycan array binding signal (z-score) (GalNAc(b1-3)GalNAc): -0.275; glycan array binding signal (z-score) (GalNAc(b1-3)GlcNAc): -0.259; glycan array binding signal (z-score) (GalNAc(b1-4)Gal(b1-4)Glc): 0.124; glycan array binding signal (z-score) (GalNAc(b1-4)GlcNAc): 1.34; glycan array binding signal (z-score) [6]: -0.174; glycan array binding signal (z-score) [7]: 0.03; glycan array binding signal (z-score) [8]: 0.338; glycan array binding signal (z-score) (GalNAc(b1-4)GlcNAc6S): 0.068; glycan array binding signal (z-score) (GalNAc(b1-6)GalNAc): 0.548; glycan array binding signal (z-score) (GalNAc3S(b1-4)GlcNAc): -0.137; glycan array binding signal (z-score) (GalNAc3S(b1-4)GlcNAc3S): -0.208; glycan array binding signal (z-score) [9]: 0.031; glycan array binding signal (z-score) (GalNAc4S6S(b1-4)GlcNAc): -0.308; glycan array binding signal (z-score) (GalNAc6S(b1-4)GlcNAc): -0.326; glycan array binding signal (z-score) (Glc(a1-4)Glc): -0.003; glycan array binding signal (z-score) [10]: -0.16; glycan array binding signal (z-score) (Glc(a1-6)Glc(a1-6)Glc): -0.009; glycan array binding signal (z-score) [11]: -0.044; glycan array binding signal (z-score) (Glc(b1-4)Glc): -0.446; glycan array binding signal (z-score) (Glc(b1-6)Glc): -0.664; glycan array binding signal (z-score) (GlcA(b1-3)Gal): -0.134; glycan array binding signal (z-score) (GlcA(b1-3)GlcNAc): -0.274; glycan array binding signal (z-score) (GlcA(b1-6)Gal): -0.096; glycan array binding signal (z-score) [12]: -0.347; glycan array binding signal (z-score) [13]: 0.009; glycan array binding signal (z-score) [14]: -0.04; glycan array binding signal (z-score) [15]: 0.056; glycan array binding signal (z-score) [16]: -0.278; glycan array binding signal (z-score) [17]: -0.561; glycan array binding signal (z-score) [18]: -0.128; glycan array binding signal (z-score) [19]: -0.045; glycan array binding signal (z-score) [20]: -0.215; glycan array binding signal (z-score) [21]: 0.229
